# From PubChem BioAssay AID1460 (National Center for Advancing Translational Sciences (NCATS), 2008)
# Where “and” joins values, the source holds several entries; their conditions need not be identical. Equal values may be shown once. About 5,800 (2.1%) of roughly 270,000 compounds were called active. The shares of active, inactive and inconclusive entries below differ from those in the screen. The call rests on the fitted dose curve; in most records, active means well fitted inhibition curve with a large enough effect; inconclusive means small, poorly fitted or top-dose-only effect; inactive means flat fitted curve, though single readings scatter. Where the call is inconclusive, the potency comes from a doubtful curve fit.
# Biological target: Microtubule-associated protein tau (Homo sapiens) (UniProt P10636)
# Chain of UniProt P10636 (P10636 whole entry, looked up): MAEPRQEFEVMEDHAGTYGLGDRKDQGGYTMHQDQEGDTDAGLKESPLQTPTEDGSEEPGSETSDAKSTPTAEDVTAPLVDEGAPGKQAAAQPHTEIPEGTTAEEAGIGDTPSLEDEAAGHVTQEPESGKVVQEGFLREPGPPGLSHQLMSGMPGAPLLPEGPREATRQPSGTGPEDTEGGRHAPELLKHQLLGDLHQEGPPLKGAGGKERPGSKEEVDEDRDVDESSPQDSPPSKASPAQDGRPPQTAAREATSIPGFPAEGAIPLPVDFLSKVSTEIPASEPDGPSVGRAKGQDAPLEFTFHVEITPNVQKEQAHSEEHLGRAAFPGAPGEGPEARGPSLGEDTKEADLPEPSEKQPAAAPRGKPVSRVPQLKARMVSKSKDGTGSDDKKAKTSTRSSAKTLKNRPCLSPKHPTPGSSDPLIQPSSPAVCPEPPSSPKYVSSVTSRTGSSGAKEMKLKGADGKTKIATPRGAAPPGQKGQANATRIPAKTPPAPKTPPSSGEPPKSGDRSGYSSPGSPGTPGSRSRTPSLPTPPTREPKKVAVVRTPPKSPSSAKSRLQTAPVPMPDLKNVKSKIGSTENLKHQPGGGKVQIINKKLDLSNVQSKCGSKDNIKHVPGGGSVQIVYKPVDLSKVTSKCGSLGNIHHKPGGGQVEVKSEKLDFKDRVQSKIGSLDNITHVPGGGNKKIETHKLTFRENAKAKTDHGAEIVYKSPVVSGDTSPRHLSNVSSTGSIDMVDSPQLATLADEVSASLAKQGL
# Test: qHTS for Inhibitors of Tau Fibril Formation, Thioflavin T Binding; further: nearly all actives have a fitted effect of over 55% in size
# Conditions: recombinant tau K18 P301L (four-repeat tau fragment), heparin-induced fibrillization, ThT fluorescence; series mostly up to 57.4 µM; activity, negative = inhibition: at the top concentration
# Outline: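 Heparin-induced (20 uM) aggregation of recombinant human K18 P301L tau, 15 uM unlabeled with 0.24 uM labeled, pH 7 acetate buffer, 6 hr at 37 C with compound. Fibrils quantified by 30 uM ThT fluorescence after 1 hr ambient incubation.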
# On the % scale 0 is the no-effect control and ±100 the full control effect; potency means the concentration at half of the fitted maximal effect; tags describe the fitted curve by direction and shape.
SMILES,Potency,"activity, negative = inhibition"
COc1cccc(CNc2ccc3c(c2)ncn3C(C)C)c1OC,"inconclusive: 20 µM [inhibitor, single point]",
COc1ccc(N2CC(NC(=O)c3ccc(S(=O)(=O)N4CCCC4)cc3)CC2=O)cc1 (stereo unspecified),,inactive: -1.65%
COC(=O)c1ccccc1-c1ccc(/C=C2\C(=O)N(c3ccccc3)N=C2c2ccccc2)o1,"inconclusive: 15.8 µM [inhibitor, partial curve]",
COc1ccccc1/C=C/c1nc(C#N)c(N2CCCCCC2)o1,"inconclusive: 25.1 µM [inhibitor, partial curve]",
Cc1ccc(CSc2sc(C(=O)c3ccccc3)c(N)c2C#N)cc1,,inactive: -5.85%
COc1cccc(N2CCN(c3ccc(N4C(=O)CCC4=O)cc3[N+](=O)[O-])CC2)c1,"inconclusive: 17.8 µM [inhibitor, partial curve]",
O=C(NC(=S)NNS(=O)(=O)c1ccccc1)c1ccc([N+](=O)[O-])cc1,"inconclusive: 15.8 µM [inhibitor, partial curve]",
CCCCN(Cc1ccccc1)C(=O)c1oc(=O)c2ccccc2c1-c1ccc(C)cc1,,inactive: -12.4%
O=[N+]([O-])c1ccc(Cl)cc1N1CCCCC1,,inactive: -5.45%
CC1CCCN(S(=O)(=O)c2ccc(NC(=O)c3nc(SC(C)C)ncc3Cl)cc2)C1 (stereo unspecified),"inconclusive: 28.2 µM [inhibitor, partial curve]",
Cc1c(NCc2cc(Cl)cc(Cl)c2O)c(=O)n(-c2ccccc2)n1C,"inconclusive: 22.4 µM [inhibitor, partial curve]",
O=c1c2ccccc2nc(/C=C/c2cccc([N+](=O)[O-])c2)n1CCO,"inconclusive: 20 µM [inhibitor, single point]",
CCC(Sc1nnc(-c2ccc(OC)cc2)c(-c2ccc(OC)cc2)n1)C(=O)NC1CCCCC1 (stereo unspecified),,inactive: 3.2%
Cc1ccc(-c2nn(-c3ccccc3)cc2/C=N/NC(=O)c2ccc(Br)o2)cc1,,inactive: -10%
COC(=O)CCCC1=CC2=CC(=O)C(C)(OC(=O)c3cccs3)C(=O)C2=CN1CCc1c[nH]c2ccccc12 (stereo unspecified),"inconclusive: 20 µM [inhibitor, partial curve] and inconclusive: 2.82 µM [inhibitor, partial curve]",
COc1ccc(-c2nc(Cn3c(SCc4ccc(F)cc4)nc4ccncc43)c(C)o2)cc1OC,"inconclusive: 17.8 µM [inhibitor, partial curve]",
Cc1ccc(/C=N/NC(=O)CCCOc2ccc(Cl)cc2Cl)cc1[N+](=O)[O-],"inconclusive: 7.94 µM [inhibitor, partial curve]",
CCOc1ccc(/C=N/NC(=O)c2cc(-c3cccn3C)n[nH]2)cc1,"inconclusive: 0.794 µM [inhibitor, full curve]",
CC(C)CNC(=O)C(=O)NNC(=O)C1CCCCC1,,inactive: -8.73%
O=C(NCc1cccc(F)c1)C1=Cc2cc(Br)ccc2OC1,,inactive: -6.87%
COc1cc(C(=O)NC(=S)Nc2ccc([N+](=O)[O-])cc2C)cc(OC)c1OC,,inactive: 1.19%
CCN1C(=O)c2cccc3c(S(=O)(=O)N(C(=O)c4ccncc4)c4ccc(OC)cc4)ccc1c23,"inconclusive: 11.2 µM [inhibitor, partial curve]",
Cc1c(-c2n[nH]c(=S)n2-c2ccc(C(F)(F)F)cc2)nnn1-c1ccccc1,,inactive: -1.02%
CCOc1ccccc1C(=O)Nc1c(NC)c2ccccc2oc1=O,"inconclusive: 39.8 µM [inhibitor, single point]",

SMILES,Potency,"activity, negative = inhibition"
O=C(Nc1nnc(-c2ccccc2Cl)o1)c1cc2cc([N+](=O)[O-])ccc2s1,"inconclusive: 2.51 µM [inhibitor, full curve]",
Cc1cc([N+](=O)[O-])c(-c2ccc(/C=N/n3cnnc3)o2)cc1Cl,"inconclusive: 14.1 µM [inhibitor, partial curve]",
CCN(CC)c1ccc(NC(=O)c2cnn(CC)c2)cc1,"inconclusive: 17.8 µM [inhibitor, partial curve]",
COC(=O)C1=C(C)N(CCc2c[nH]c3ccc(OC)cc23)C(=O)C1,"inconclusive: 35.5 µM [inhibitor, partial curve]",
N#C/C(=C/c1ccc([N+](=O)[O-])cc1)C(N)=O,"inconclusive: 20 µM [inhibitor, single point]",
N#CC1=C(N)Oc2c(ccc3cccnc23)C1c1ccncc1 (stereo unspecified),"inconclusive: 0.224 µM [inhibitor, full curve, poor fit]",
COc1cc(/C=C(\C#N)c2nc3ccc(C)cc3[nH]2)cc([N+](=O)[O-])c1O,active: 2 µM,
CCc1ccccc1NC(=O)CN1C(=O)CCc2cc(S(=O)(=O)N3CCCCC3)ccc21,,inactive: -0.665%
COc1cc2c(cc1NS(=O)(=O)c1cccc(C#N)c1)n(C)c(=O)n2C,"inconclusive: 15.8 µM [inhibitor, single point]",
O=C(O)CCc1ccc(-c2ccccc2)n1-c1cccc(O)c1,"inconclusive: 12.6 µM [inhibitor, partial curve]",
C/C(N)=C(/C#N)C(=O)COC(=O)c1cc(C)n(-c2ccc(F)cc2)c1C,,inactive: -12.4%
CC1(C)CC(=O)C(C2(O)C(=O)N(Cc3ccccc3)c3ccccc32)CO1 (stereo unspecified),"inconclusive: 15.8 µM [inhibitor, partial curve]",
CCNC(=O)COc1ccc(-c2ccccc2)cc1,,inactive: -17.7%
C=CCc1ccccc1OCC(O)CN1CCN(c2ccc(C)cc2)CC1 (stereo unspecified),"inconclusive: 17.8 µM [inhibitor, partial curve]",
Cc1ccc2nc(N/N=C/c3ccco3)cc(C)c2c1,active: 17.8 µM,
Oc1[nH]c(=S)sc1C=C1N=c2ccccc2=N1,active: 14.1 µM,
CCc1ccc2[nH]c(C(=O)Nc3ccc4c(c3)OCO4)cc2c1,"inconclusive: 3.55 µM [inhibitor, single point]",
Cc1cccc(NC(=O)C2SC(=Nc3c(C)cccc3C)C(C(=O)N3CCOCC3)=C2N)c1 (stereo unspecified),active: 7.08 µM,
COc1ccc(OCCCn2c(=O)oc3ccc(C)cc32)cc1,"inconclusive: 20 µM [inhibitor, single point]",
CC1(C)SC2[C@H](NC(=O)C(NC(=O)N3CCNC3=O)c3ccccc3)C(=O)N2C1C(=O)O (stereo partly specified),,inactive: -7.96%
NS(=O)(=O)c1cccc(NC(=O)CN2CCC(Cc3ccccc3)CC2)c1,,inactive: 0.447%
CC1(C)NC(=O)N(CC(=O)OCC(=O)Nc2cc(S(=O)(=O)N3CCCCCC3)ccc2Cl)C1=O,,inactive: -0.559%
O=C(Nc1ccc(Nc2ccccc2)cc1)c1ccco1,"inconclusive: 12.6 µM [inhibitor, partial curve]",
COC(=O)c1[nH]c2cc(C)ccc2c1NC(=O)CN1CCCc2ccccc21,"inconclusive: 8.91 µM [inhibitor, partial curve]",

SMILES,Potency,"activity, negative = inhibition"
CCN(CC)S(=O)(=O)c1ccc(C(=O)Oc2coc(CSc3nc(C)cc(C)n3)cc2=O)cc1,"inconclusive: 12.6 µM [inhibitor, partial curve]",
COc1ccc(CNC(=O)C(C#N)c2nc3ccccc3nc2N2CCCC2)cc1 (stereo unspecified),,inactive: -1.95%
Cc1sc2ncnc(N3CCC(C(=O)Oc4cccc(Cl)c4Cl)CC3)c2c1C,"inconclusive: 10 µM [inhibitor, partial curve]",
Cc1c(NC(=O)c2ccc(-c3ccc([N+](=O)[O-])cc3Cl)o2)c(=O)n(-c2ccccc2)n1C,"inconclusive: 39.8 µM [inhibitor, single point]",
Cc1c(Cl)cccc1NC(CC(=O)c1ccccc1)C(=O)O (stereo unspecified),"inconclusive: 20 µM [inhibitor, partial curve]",
CCOC(=O)C1CCCN(c2nc3ccccc3nc2C(C#N)C(=O)OCC)C1 (stereo unspecified),"inconclusive: 17.8 µM [inhibitor, partial curve]",
CN(C)CCCN(C(=O)c1ccc2c(c1)CCCC2)c1nc2c(F)cccc2s1,,inactive: 9.72%
O=C(NCc1ccco1)c1cccs1,,inactive: -3.96%
C(=Nc1ccc(Nc2ccccc2)cc1)c1ccc2ccccc2c1,active: 7.94 µM,
Cc1ccc(S(=O)(=O)N2CCN(C(=O)N(C)C)CC2)cc1,,inactive: -5.42%
Cc1ccc(N=c2c([N+](=O)[O-])nn(-c3ccc(Cl)cc3)n2O)cc1C,active: 12.6 µM,
COc1ccc(C(=O)/C=C/c2ccc(O)cc2)cc1,"inconclusive: 39.8 µM [inhibitor, single point]",
Cc1cc(C(=O)Nc2ccc(Cl)cc2)c(C)n1Cc1cccs1,"inconclusive: 28.2 µM [inhibitor, partial curve, poor fit]",
O=C(NN=C1c2ccccc2-c2ccccc21)c1ccccc1,active: 22.4 µM,
CC(Sc1nnc(-c2ccc(O)cc2)o1)C(=O)Nc1cccc2ccccc12 (stereo unspecified),,inactive: -7.68%
CCc1cccc(C)c1NC(=O)c1cc(C)nc2c1c(C)nn2-c1cccc(Cl)c1C,,inactive: 1.69%
CCOc1ccc(NC(=S)NC(=O)c2c(Cl)cnn2CC)c([N+](=O)[O-])c1,"inconclusive: 25.1 µM [inhibitor, single point]",
CCN(CC)c1ccc(NC(=O)c2ccccc2Br)cc1S(=O)(=O)Nc1ccccc1OC,active: 25.1 µM,
CC(=O)c1c(C)oc2ccc(N(C(=O)Oc3ccccc3)S(=O)(=O)c3ccc(C(C)(C)C)cc3)cc12,,inactive: -3.84%
Nn1c(SCC(=O)N2CCOCC2)nnc1C1CC1,,inactive: 3.97%
COC(=O)/C(C#N)=C/c1ccc(N2CCOCC2)c([N+](=O)[O-])c1,,inactive: -14.3%
CCC(C)NC(=O)c1ccc(-n2c(-c3ccccc3)cc3c2CCCC3)cc1 (stereo unspecified),"inconclusive: 8.91 µM [inhibitor, partial curve, poor fit]",
COc1ccc2c(c1)CCc1c(C(=O)NCCc3ccc(OC)c(OC)c3)noc1-2,"inconclusive: 2.51 µM [inhibitor, full curve]",
